Measurements published in the supplement of paper PMC8728848.
Some of the results follow.

Legend:
Test in all cases: glycan array binding signal (z-score within array); higher = stronger binding
Settings in all cases: glycan notation: IUPAC condensed, linker removed; mutation: F335Y
[1] = target: GlcNAc(b1-3)[GlcNAc(b1-6)]GalNAc
Outline: (§1)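 The Consortium for Functional Glycomics database supplied 3228 glycan arrays, of which those lacking an available protein sequence were dropped. The binding signal, a within-array Z-score, was averaged across arrays of the same protein sequence and across linkers. Negative scores can be read as non-binding.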

[2] = target: GlcNAc(b1-4)Gal(b1-4)GlcNAc
Outline: as §1

[3] = target: GlcNAc(b1-4)GlcNAc
Outline: as §1

[4] = target: GlcNAc(b1-4)GlcNAc(b1-4)GlcNAc
Outline: as §1

[5] = target: GlcNAc(b1-4)GlcNAc(b1-4)GlcNAc(b1-4)GlcNAc(b1-4)GlcNAc
Outline: as §1

[6] = target: GlcNAc(b1-4)GlcNAc(b1-4)GlcNAc(b1-4)GlcNAc(b1-4)GlcNAc(b1-4)GlcNAc
Outline: as §1

[7] = target: GlcNAc(b1-4)[GlcNAc(b1-6)]GalNAc
Outline: as §1

[8] = target: GlcNAc(b1-6)Gal(b1-4)GlcNAc
Outline: as §1

[9] = target: GlcNAc(b1-6)GalNAc
Outline: as §1

[10] = target: GlcNAc3Prop(b1-4)GlcNAc
Outline: as §1

[11] = target: Kdn(a2-3)Gal(b1-3)GlcNAc
Outline: as §1

[12] = target: Kdn(a2-3)Gal(b1-4)GlcNAc
Outline: as §1

[13] = target: Man(a1-2)Man(a1-2)Man(a1-3)Man
Outline: as §1

[14] = target: Man(a1-2)Man(a1-2)Man(a1-6)[Man(a1-3)]Man
Outline: as §1

[15] = target: Man(a1-2)Man(a1-3)Man
Outline: as §1

[16] = target: Man(a1-2)Man(a1-3)[Man(a1-2)Man(a1-6)]Man
Outline: as §1

[17] = target: Man(a1-2)Man(a1-3)[Man(a1-2)Man(a1-6)]Man(a1-6)[Man(a1-2)Man(a1-2)Man(a1-3)]Man
Outline: as §1

[18] = target: Man(a1-2)Man(a1-3)[Man(a1-2)Man(a1-6)]Man(a1-6)[Man(a1-2)Man(a1-2)Man(a1-3)]Man(b1-4)GlcNAc(b1-4)GlcNAc
Outline: as §1

[19] = target: Man(a1-2)Man(a1-3)[Man(a1-6)]Man(a1-6)[Man(a1-2)Man(a1-3)]Man(b1-4)GlcNAc(b1-4)GlcNAc
Outline: as §1

[20] = target: Man(a1-2)Man(a1-6)[Man(a1-3)]Man(a1-6)[Man(a1-2)Man(a1-2)Man(a1-3)]Man
Outline: as §1

[21] = target: Man(a1-2)Man(a1-6)[Man(a1-3)]Man(a1-6)[Man(a1-2)Man(a1-2)Man(a1-3)]Man(b1-4)GlcNAc(b1-4)GlcNAc
Outline: as §1

[22] = target: Man(a1-3)[Man(a1-6)]Man
Outline: as §1

[23] = target: Man(a1-3)[Man(a1-6)]Man(a1-6)[Man(a1-2)Man(a1-3)]Man(b1-4)GlcNAc(b1-4)GlcNAc
Outline: as §1

[24] = target: Man(a1-3)[Man(a1-6)]Man(a1-6)[Man(a1-3)]Man
Outline: as §1

[25] = target: Man(a1-3)[Man(a1-6)]Man(a1-6)[Man(a1-3)]Man(b1-4)GlcNAc(b1-4)GlcNAc
Outline: as §1

[26] = target: Man(a1-3)[Man(a1-6)]Man(b1-4)GlcNAc(b1-4)GlcNAc
Outline: as §1

[27] = target: Man(a1-6)Man
Outline: as §1

[28] = target: Man(b1-4)GlcNAc
Outline: as §1

[29] = target: Neu5Ac(a2-3)Gal
Outline: as §1

[30] = target: Neu5Ac(a2-3)Gal(b1-3)GalNAc
Outline: as §1

[31] = target: Neu5Ac(a2-3)Gal(b1-3)GalNAc(b1-3)Gal(a1-4)Gal(b1-4)Glc
Outline: as §1

[32] = target: Neu5Ac(a2-3)Gal(b1-3)GalNAc(b1-3)Gal(b1-4)GlcNAc
Outline: as §1

[33] = target: Neu5Ac(a2-3)Gal(b1-3)GalNAc(b1-4)[Neu5Ac(a2-3)]Gal(b1-4)Glc
Outline: as §1

[34] = target: Neu5Ac(a2-3)Gal(b1-3)GalNAc6S
Outline: as §1

[35] = target: Neu5Ac(a2-3)Gal(b1-3)GlcNAc
Outline: as §1

[36] = target: Neu5Ac(a2-3)Gal(b1-3)GlcNAc(b1-3)Gal(b1-3)GlcNAc
Outline: as §1

[37] = target: Neu5Ac(a2-3)Gal(b1-3)GlcNAc6S
Outline: as §1

[38] = target: Neu5Ac(a2-3)Gal(b1-3)[Fuc(a1-4)]GlcNAc
Outline: as §1

B1: Surfactant Protein D (Human); Neck + Carbohydrate Recognition Domain (NCRD) (Homo sapiens) (protein)
chain: MLLFLLSALVLLTQPLGYLEAEMKTYSHRTMPSACTLVMCSSVESGLPGRDRDGREGPRGEKGDPGLPGAAGQAGMPGQAGPVGPKGDNGSVGEPGPKGDTGPSGPPGPPGVPGPAGREGALGKQGNIGPQGKPGPKGEAGPKGEVGAPGMQGSAGARGLAGPKGERGVPGERGVPGNTGAAGSAGAMGPQGSPGARGPPGLKGDKGIPGDKGAKGESGLPDVASLRQQVEALQGQVQHLQAAFSQYKKVELFPNGQSVGEKIFKTAQFVKPFTEAQLLCTQAGGQLASPRSAAENAALQQLVVAKNEAAFLSMTDSKTEGKFTYPTGESLVYSNWAPGEPNDDGGSEDCVEIYTNGKWNDRACGEKRLVVCEF
glycan array binding signal (z-score) [1]: -0.189 | glycan array binding signal (z-score) [2]: -0.185 | glycan array binding signal (z-score) [3]: -0.192 | glycan array binding signal (z-score) [4]: -0.19 | glycan array binding signal (z-score) [5]: -0.195 | glycan array binding signal (z-score) [6]: -0.193 | glycan array binding signal (z-score) [7]: -0.157 | glycan array binding signal (z-score) [8]: -0.191 | glycan array binding signal (z-score) [9]: -0.181 | glycan array binding signal (z-score) [10]: -0.186 | glycan array binding signal (z-score) [11]: -0.18 | glycan array binding signal (z-score) [12]: -0.19 | glycan array binding signal (z-score) [13]: 3.03 | glycan array binding signal (z-score) [14]: 5.87 | glycan array binding signal (z-score) [15]: 0.21 | glycan array binding signal (z-score) [16]: 7.66 | glycan array binding signal (z-score) [17]: 7.37 | glycan array binding signal (z-score) [18]: 0.541 | glycan array binding signal (z-score) [19]: 2.53 | glycan array binding signal (z-score) [20]: 2.26 | glycan array binding signal (z-score) [21]: 5.84 | glycan array binding signal (z-score) [22]: 0.326 | glycan array binding signal (z-score) [23]: 7.18 | glycan array binding signal (z-score) [24]: 3.93 | glycan array binding signal (z-score) [25]: 5.06 | glycan array binding signal (z-score) [26]: 0.202 | glycan array binding signal (z-score) [27]: -0.169 | glycan array binding signal (z-score) [28]: -0.191 | glycan array binding signal (z-score) [29]: -0.19 | glycan array binding signal (z-score) [30]: -0.19 | glycan array binding signal (z-score) [31]: -0.187 | glycan array binding signal (z-score) [32]: -0.192 | glycan array binding signal (z-score) [33]: -0.187 | glycan array binding signal (z-score) [34]: -0.191 | glycan array binding signal (z-score) [35]: -0.187 | glycan array binding signal (z-score) [36]: -0.179 | glycan array binding signal (z-score) [37]: -0.192 | glycan array binding signal (z-score) [38]: -0.188
